The IC50 comes from the fitted curve, where viability falls to half of the control; where the fit passes the top or lowest dose, that dose stands as a limit. The AUC spans the tested range (256-fold, ending at the top dose) of the same fit; values near 1 show little effect. For some assays here: Any top dose called inferred is not printed in the source and was worked back from the curve model. For some assays here: Where an entry number is given, a second screen of the drug exists; the two often differ.
Tests used:
Assay in all cases: Viability of human cancer cell lines after 72 h of drug (GDSC screen)
ABT-888 = compound: C[C@]1(c2nc3c(C(N)=O)cccc3[nH]2)CCCN1 [ABT-888]; conditions: top dose 5 µM; top dose inferred
Method: (§1)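 Human cancer cell lines in 384-well plates, medium with 10% serum, drug for 72 h over a 256-fold dose range (nine 2-fold or five 4-fold steps up to the top dose). Adherent lines were fixed and stained with the nucleic acid dye Syto60, suspension lines read with resazurin; signal relative to control wells, capped at 0 and 100%. One two-parameter sigmoid per drug and line, fitted in a mixed model over all curves with the slope shared within a line.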

KU-55933 = compound: O=c1cc(-c2cccc3c2Sc2ccccc2S3)oc(N2CCOCC2)c1 [KU-55933]; conditions: top dose 10 µM
Method: as §1

ABT-869 = compound: Cc1ccc(F)c(NC(=O)Nc2ccc(-c3cccc4[nH]nc(N)c34)cc2)c1 [ABT-869]; conditions: top dose 1.024 µM; top dose inferred
Method: as §1

CP466722 = compound: COc1cc2ncnc(-n3nc(-c4ccccn4)nc3N)c2cc1OC [CP466722]; conditions: top dose 16 µM; top dose inferred
Method: as §1

Cytarabine = compound: Nc1ccn([C@@H]2O[C@H](CO)[C@@H](O)[C@@H]2O)c(=O)n1 [Cytarabine]; conditions: top dose 2 µM
Method: as §1

Zibotentan = compound: COc1nc(C)cnc1NS(=O)(=O)c1cccnc1-c1ccc(-c2nnco2)cc1 [Zibotentan]; conditions: top dose 20 µM; top dose inferred
Method: as §1

QL-X-138 = compound: C=CC(=O)Nc1cc(-n2c(=O)ccc3cnc4ccc(-c5cn[nH]c5)cc4c32)ccc1C [QL-X-138]; conditions: top dose 10.24 µM; top dose inferred
Method: as §1

Thapsigargin = compound: C/C=C(/C)C(=O)O[C@H]1C(C)=C2[C@H]([C@@H]1OC(=O)CCCCCCC)[C@@](C)(OC(C)=O)C[C@H](OC(=O)CCC)[C@@]1(O)[C@H]2OC(=O)[C@@]1(C)O [Thapsigargin]; conditions: top dose 0.512 µM; top dose inferred
Method: as §1

(5Z)-7-Oxozeaenol = compound: COc1cc(O)c2c(c1)/C=C/C[C@H](O)[C@H](O)C(=O)/C=C\C[C@H](C)OC2=O [(5Z)-7-Oxozeaenol]; conditions: top dose 10 µM; top dose inferred
Method: as §1

GSK269962A = compound: CCn1c(-c2nonc2N)nc2cnc(Oc3cccc(NC(=O)c4ccc(OCCN5CCOCC5)cc4)c3)cc21 [GSK269962A]; conditions: top dose inferred
Method: as §1

CHIR-99021 = compound: Cc1cnc(-c2cnc(NCCNc3ccc(C#N)cn3)nc2-c2ccc(Cl)cc2Cl)[nH]1 [CHIR-99021]
Method: as §1

CMK = compound: Cc1ccc(-c2c(C(=O)CCl)n(CCCO)c3ncnc(N)c23)cc1 [CMK]; conditions: top dose 4 µM; top dose inferred
Method: as §1

MPS-1-IN-1 = compound: COc1cc(N2CCC(O)CC2)ccc1Nc1cc(Nc2ccccc2S(=O)(=O)C(C)C)c2cc[nH]c2n1 [MPS-1-IN-1]; conditions: top dose 20 µM; top dose inferred
Method: as §1

[1] = top dose 2.5 µM, screen: GDSC drug entry 127
[2] = top dose 5 µM, screen: GDSC drug entry 1192
[3] = top dose 2.56 µM, screen: GDSC drug entry 154
[4] = top dose 10 µM, screen: GDSC drug entry 1241, top dose inferred

| Cell Line | AUC (ABT-888) | IC50 (ABT-888) [µM] | AUC (KU-55933) | IC50 (KU-55933) [µM] | AUC (ABT-869) | IC50 (ABT-869) [µM] | AUC (CP466722) | IC50 (CP466722) [µM] | AUC (Cytarabine) | IC50 (Cytarabine) [µM] | AUC (Zibotentan) | IC50 (Zibotentan) [µM] | AUC (QL-X-138) | IC50 (QL-X-138) [µM] | AUC (Thapsigargin) | IC50 (Thapsigargin) [µM] | AUC ((5Z)-7-Oxozeaenol) | IC50 ((5Z)-7-Oxozeaenol) [µM] | AUC (GSK269962A; [1]) | IC50 (GSK269962A; [1]) [µM] | AUC (GSK269962A; [2]) | IC50 (GSK269962A; [2]) [µM] | AUC (CHIR-99021; [3]) | IC50 (CHIR-99021; [3]) [µM] | AUC (CHIR-99021; [4]) | IC50 (CHIR-99021; [4]) [µM] | AUC (CMK) | IC50 (CMK) [µM] | AUC (MPS-1-IN-1) | IC50 (MPS-1-IN-1) [µM] |
| --- | --- | --- | --- | --- | --- | --- | --- | --- | --- | --- | --- | --- | --- | --- | --- | --- | --- | --- | --- | --- | --- | --- | --- | --- | --- | --- | --- | --- | --- | --- |
| HC-1 (hairy cell leukaemia, suspension) | 0.987 | > 5 | 0.968 | > 10 | 0.98 | > 1.02 | 0.655 | 2.63 | 0.985 | > 2 | 0.979 | > 20 | 0.519 | 0.719 | 0.706 | 0.119 | 0.503 | 0.635 | 0.987 | > 2.5 | 0.942 | > 5 | 0.984 | > 2.56 | 0.927 | > 10 | 0.9 | > 4 |  |  |
| IA-LM (large cell lung carcinoma, adherent) | 0.981 | > 5 | 0.945 | > 10 | 0.981 | > 1.02 | 0.918 | > 16 | 0.897 | > 2 | 0.979 | > 20 | 0.738 | 3.36 | 0.2 | 0.00362 | 0.749 | 3.6 |  |  | 0.94 | > 5 |  |  |  |  | 0.835 | 3.09 | 0.964 | > 20 |
| IST-SL2 (small cell lung carcinoma, suspension) | 0.989 | > 5 | 0.952 | > 10 | 0.987 | > 1.02 | 0.717 | 4.09 | 0.827 | 1.2 |  |  | 0.407 | 0.357 | 0.272 | 0.00724 | 0.805 | 4.98 | 0.816 | 1.37 | 0.967 | > 5 | 0.987 | > 2.56 | 0.903 | > 10 | 0.865 | 3.47 |  |  |
| KARPAS-231 (B-cell leukaemia, suspension) | 0.994 | > 5 | 0.844 | 4.84 | 0.994 | > 1.02 |  |  | 0.275 | 0.0345 |  |  | 0.173 | 0.0928 | 0.174 | 0.00467 | 0.823 | 4.21 | 0.804 | 0.927 | 0.95 | > 5 | 0.994 | > 2.56 | 0.952 | > 10 | 0.742 | 1 |  |  |
| LU-65 (large cell lung carcinoma, suspension) | 0.987 | > 5 | 0.978 | > 10 | 0.982 | > 1.02 | 0.768 | 7.09 | 0.987 | > 2 | 0.986 | > 20 | 0.845 | 9.46 | 0.538 | 0.0415 | 0.966 | > 10 |  |  |  |  |  |  |  |  | 0.947 | > 4 | 0.787 | 10.4 |
| NB1 (neuroblastoma, semi-adherent) | 0.984 | > 5 | 0.977 | > 10 | 0.972 | > 1.02 |  |  | 0.753 | 0.732 | 0.975 | > 20 | 0.886 | > 10.2 | 0.497 | 0.0313 | 0.721 | 2.84 | 0.886 | > 2.5 | 0.841 | 4.02 | 0.926 | > 2.56 | 0.958 | > 10 | 0.88 | > 4 | 0.71 | 5.24 |
| RCC10RGB (kidney, adherent) | 0.961 | > 5 | 0.958 | > 10 | 0.969 | > 1.02 | 0.919 | > 16 | 0.916 | > 2 | 0.941 | > 20 | 0.882 | > 10.2 | 0.846 | > 0.512 |  |  | 0.775 | 2.28 |  |  | 0.768 | 2.16 |  |  | 0.861 | > 4 | 0.899 | > 20 |
| RPMI-8226 (myeloma, suspension) | 0.952 | > 5 | 0.908 | > 10 |  |  | 0.745 | 4.47 | 0.968 | > 2 | 0.984 | > 20 | 0.459 | 0.502 | 0.208 | 0.00515 | 0.674 | 1.78 | 0.971 | > 2.5 | 0.949 | > 5 |  |  |  |  | 0.921 | > 4 | 0.888 | 17.4 |
| SUP-B15 (lymphoblastic leukaemia, suspension) | 0.962 | > 5 | 0.934 | > 10 | 0.986 | > 1.02 | 0.594 | 1.79 | 0.446 | 0.0896 | 0.981 | > 20 | 0.244 | 0.122 | 0.463 | 0.0255 |  |  | 0.754 | 0.807 |  |  | 0.964 | > 2.56 |  |  | 0.787 | 1.67 | 0.867 | 16.8 |
| SW954 (urogenital system, adherent) | 0.985 | > 5 | 0.95 | > 10 | 0.977 | > 1.02 | 0.696 | 3.58 | 0.971 | > 2 | 0.985 | > 20 | 0.723 | 2.78 | 0.331 | 0.0107 |  |  | 0.914 | > 2.5 |  |  | 0.985 | > 2.56 |  |  | 0.92 | > 4 | 0.84 | 14 |

From the supplement of paper PMC4967469
